From PubChem BioAssay AID2451 (National Center for Advancing Translational Sciences (NCATS), 2010)
Where “and” joins values, the source holds several entries; their conditions need not be identical. Equal values may be shown once. The campaign covered roughly 290,000 compounds. About 2,100 (0.72%) were called active. Inconclusive means that the source gave no clear call. Such entries were picked first, then a sample of the others. Calls come from the whole dose curve; as a rule, active = well fitted inhibition curve with a large enough effect; inconclusive = small, poorly fitted or top-dose-only effect, or effect the other way; inactive = flat fitted curve, though single readings scatter. Potencies of inconclusive entries are doubtful fits and often do not repeat.

molecular target: Fructose-bisphosphate aldolase (Giardia intestinalis (strain ATCC 50803 / WB clone C6)) (UniProt A8B2U2); assay: qHTS Assay for Inhibitors of Fructose-1,6-bisphosphate Aldolase from Giardia Lamblia; conditions: purified Giardia FBPA; series mostly up to 59.6 µM; note: nearly all actives have a fitted effect of over 55% in size
Procedure, shortened: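 40 nM FBPA preincubated 10 min at RT with compound (up to 57.5 uM final), then substrate plus GAPDH/TPI/NAD/arsenate coupling and diaphorase/resazurin added. Fluorescence read after 20 min at RT, 525/598 nm.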
Potency is the fitted concentration of half-maximal effect; tags give direction and shape of the fitted curve.

Chain of UniProt A8B2U2 (A8B2U2 whole entry, looked up): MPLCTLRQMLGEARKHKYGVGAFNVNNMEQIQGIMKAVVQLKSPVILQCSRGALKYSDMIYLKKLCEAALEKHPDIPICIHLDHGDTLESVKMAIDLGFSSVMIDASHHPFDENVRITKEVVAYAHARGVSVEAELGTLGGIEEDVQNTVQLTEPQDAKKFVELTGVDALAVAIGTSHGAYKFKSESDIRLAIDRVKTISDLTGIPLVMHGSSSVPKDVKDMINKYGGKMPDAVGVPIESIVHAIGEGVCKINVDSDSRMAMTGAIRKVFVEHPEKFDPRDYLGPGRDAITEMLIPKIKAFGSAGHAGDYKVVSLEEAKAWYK

| Structure (SMILES) | Potency |
| --- | --- |
| CC(C)CCOC(=O)c1c(N)n(CC2CCCO2)c2nc3ccccc3nc12 (stereo not given) | inconclusive: 15.8 µM [inhibitor, partial curve] |
| Cc1ccc(NC2=C(NCCO)C(=O)c3ccccc3C2=O)cc1 | inconclusive: 5 µM [inhibitor, partial curve] |
| CC(C)Oc1ccc(/C=N/NC(N)=S)cc1 | inconclusive: 17.7 µM [inhibitor, partial curve] |
| O=C(c1ccc2c(c1)OCO2)[C@@H]1[C@@H]2C(=O)N(C3CCCCC3)C(=O)[C@@H]2C2c3ccccc3C=CN21 (stereo not given in full) | inconclusive: 2.24 µM [inhibitor, full curve] |
| CN(CC(=O)Nc1ccc(Cl)c(Cl)c1)Cc1nnc(-c2ccc(F)cc2)o1 | inactive |
| C/C(=N\NC(=O)COc1ccc(C(C)(C)C)cc1)c1ccc(-n2ccnc2)cc1 | inactive |
| N#C/C(=N\Nc1ccccc1)C(N)=S | active: 19.9 µM |
| O=c1[nH]c2ccc(NC(=S)Nc3ccccc3Cl)cc2[nH]1 | inconclusive: 35.4 µM [inhibitor, single point] |
| Cc1cc(C)n2[nH]c(=O)c(N=Nc3cccc(Cl)c3)c2n1 | inconclusive: 1.78 µM [inhibitor, partial curve, poor fit] |
| CC(C)NCCCOc1ccc(Cl)cc1Br | inconclusive: 19.9 µM [inhibitor, partial curve] |
| CCOc1ccc(C2C=C(c3ccccc3)Nc3nnnn32)cc1 (stereo not given) | inactive |
| Cc1nc(Nc2nc(CSc3ccc(Cl)cc3)cc(=O)[nH]2)nc2ccccc12 | inactive |
| CCOC(=O)Cc1csc(NC(=O)CSc2nc(C)cc(=O)[nH]2)n1 | inconclusive: 17.7 µM [inhibitor, single point] |
| CC1=Nc2cc(Cl)ccc2Oc2ccccc21 | inconclusive: 14.1 µM [inhibitor, partial curve] |
| Clc1ccc(SCCN2CCNCC2)cc1 | inconclusive: 3.97 µM [inhibitor, partial curve] |
| Cc1cc(=O)[nH]c(N/N=C/C2=C(N3CCOCC3)C(=C\c3ccc(Cl)cc3)/CC2)n1 | inactive |
| S=C(NCc1ccccc1)Nc1nccs1 | active: 12.6 µM |
| COC(=O)[C@H]1[C@H]2C[C@@H]3c4[nH]c5cc(OC)ccc5c4CCN3C[C@H]2C[C@@H](OC(=O)c2ccc(N)cc2)[C@@H]1OC | inconclusive: 17.7 µM [inhibitor, partial curve] |
| Nc1nc(-c2ccc(Cl)c(Cl)c2)c(-c2ccncc2)s1 | inconclusive: 22.3 µM [inhibitor, single point] |
| O=C(Cn1c(=O)oc2ccccc21)Nc1n[nH]c(=S)s1 | inconclusive: 19.9 µM [inhibitor, partial curve] |
| CCOC(=O)Cn1cc([N+](=O)[O-])nc1[N+](=O)[O-] | inconclusive: 6.29 µM [inhibitor, partial curve] |
| FC(F)(F)Oc1ccc(NC(=S)NCCCN2CCOCC2)cc1 | inconclusive: 22.3 µM [inhibitor, single point] |
| COc1cccc2sc(Nc3nnc(-c4ccc(F)cc4)o3)nc12 | active: 15.8 µM |
| Cc1cccc(NC(=S)NNC(=O)COc2ccc(Cl)cc2Cl)c1 | inconclusive: 19.9 µM [activator, partial curve] |
| COCCNC(=O)CSc1nc2ccc(N3CCOCC3)cc2c(=O)n1Cc1ccc(OC)cc1 | inconclusive: 3.97 µM [inhibitor, full curve] |

| Structure (SMILES) | Potency |
| --- | --- |
| COc1ccc(N2CSC3=C(C#N)C(c4cccc(OC)c4OC)CC(=O)N3C2)cc1 (stereo not given) | active: 1.99 µM |
| CCn1ncc(Br)c1C(=O)Nc1sc2c(c1C(N)=O)CCC2 | inactive |
| CC1CCC(C(C)C)C(=O)/C1=C/c1ccc(N)cc1 (stereo not given) | inactive |
| CN1C(=O)CC(C(=O)O)SC1=Nc1cc(Cl)cc(Cl)c1 (stereo not given) | inconclusive: 14.1 µM [activator, partial curve] |
| CC(C)c1ccc(NC(=O)C2CC2c2ccccc2)cc1 (stereo not given) | inactive |
| CCCCCC(=O)NC(=S)NNC(=O)c1ccc([N+](=O)[O-])cc1 | inconclusive: 15.8 µM [activator, partial curve] |
| O=C(O)Cn1c(-c2ccccn2)nc2ccccc21 | inactive |
| O=C(NC1CCCCC1)C(c1cc2c(cc1[N+](=O)[O-])OCO2)N1CCCCC1 (stereo not given) | inactive |
| O=C(O)/C=C/C(=O)NCc1cn(-c2ccccc2)nc1-c1cccc(Br)c1 | inconclusive: 35.4 µM [activator, single point] |
| Cc1ccc(/C=C/C(=O)c2ccccc(=O)c2O)cc1C | inconclusive: 35.4 µM [activator, single point] |
| O=C(COc1ccccc1)N1CCN(CC2CC=CCC2)CC1 (stereo not given) | inconclusive: 22.4 µM [inhibitor, partial curve] |
| CC(=O)/C(CN1CCCCC1)=N\O | inconclusive: 22.3 µM [inhibitor, single point] |
| NC(=O)C1=C[C@H](c2ccc(C(F)(F)F)cc2)C[C@H](OCCCCO)O1 | inconclusive: 19.9 µM [inhibitor, partial curve] |
| Clc1cccc(CN2CCCCCCC2)c1Cl | inconclusive: 17.7 µM [inhibitor, single point] |
| CSc1ccc(CN2CCN(C(=O)c3ccc([N+](=O)[O-])cc3)CC2)cc1 | inconclusive: 15.8 µM [inhibitor, partial curve] |
| CN1CCN(C(=S)c2ccc(Br)cc2)CC1 | active: 15.8 µM |
| CN(C)C1C(=O)C(C(N)=O)=C(O)C2(O)C(=O)C3=C(O)c4c(O)cccc4C(C)(O)C3CC12 (stereo not given) | inconclusive: 14.1 µM [inhibitor, partial curve] |
| O=[N+]([O-])c1ccc(CNc2ccc(F)cc2)s1 | inconclusive: 17.8 µM [inhibitor, single point] |
| Cc1cc(NC(=O)c2ccccc2)ccc1NC(=O)c1ccccc1Cl | inactive |
| Cc1cccc(NC(=O)CCn2cnnn2)c1 | inactive |
| COc1cc2c(cc1NC(=O)C(C)OC(=O)/C=C/c1ccc(OC(F)F)cc1)oc1ccccc12 (stereo not given) | inactive |
| O=C(CN1CCN(c2ncccn2)CC1)NCCC1=CCCCC1 | inconclusive: 17.7 µM [inhibitor, partial curve] |
| Cc1nn(-c2ccccc2)c(C)c1C(=O)OCC(=O)Nc1ccc2c(c1)OCO2 | inactive |
| CN(C)c1cc(N/N=C\c2ccccc2)nc(N(C)C)n1 | inconclusive: 0.354 µM [inhibitor, full curve] |
| COc1cc(/C=N/NC(N)=O)cc(Br)c1OCc1ccccc1C | inactive |

| Structure (SMILES) | Potency |
| --- | --- |
| CCCCCCNC(=O)Nc1ccc(S(=O)(=O)Nc2ccc(CCNC[C@H](O)COc3ccc(O)cc3)cc2)cc1 | inactive |
| COc1ccc(C2CC(O)(c3ccccc3)Oc3cc(OC)cc(OC)c32)cc1 (stereo not given) | inconclusive: 22.3 µM [inhibitor, single point] and inconclusive: 15.8 µM [inhibitor, partial curve] |
| O=C(Nc1cc(Sc2ccccn2)cc([N+](=O)[O-])c1)c1cccc(F)c1 | inactive |
| CC1CC(C)CN(c2ccc([N+](=O)[O-])cc2-c2nn[nH]n2)C1 (stereo not given) | inconclusive: 11.2 µM [inhibitor, partial curve] |
| NS(=O)(=O)c1ccc(N=Cc2c(O)n(-c3nccs3)c(=O)c3ccccc23)cc1 | inactive |
| COc1ccccc1N1CCN(c2nc(N)c(C#N)c(CC#N)c2C#N)CC1 | inconclusive: 19.9 µM [inhibitor, partial curve] |
| Cc1ccc(C)c(N2CCN(CCN3CCCCC3)CC2)c1 | active: 15.8 µM |
| CN(C)c1ccc(-c2cc(-n3ccnc3)ncn2)cc1 | inconclusive: 17.7 µM [inhibitor, partial curve] |
| CCOC(=O)Cc1csc(NC(=S)NC(=O)c2cc(OC)c(OC)c(OC)c2)n1 | active: 19.9 µM |
| Cc1ccc2c(c1)c(N=O)c(O)n2Cc1ccc(Cl)cc1 | inactive |
| COc1ccc(OC)c(-n2cc3c(=O)n(C)c(=O)n(C)c3c2)c1 | inconclusive: 25.1 µM [inhibitor, single point] |
| CCN(CC)S(=O)(=O)c1ccc2oc(C(=O)O)c(C)c2c1 | inconclusive: 17.7 µM [activator, single point] |
| CCCn1c(NCc2cc(OC)ccc2OC)nc2ccccc21 | inactive |
| NC(=O)c1c(NC(=O)Cc2ccccc2)sc2c1CCN(Cc1ccccc1)C2 | active: 12.6 µM |
| Cc1ccn2cc(-c3cccc(S(=O)(=O)N4CCCC4)c3)nc2c1 | inactive |
| O=C(Nc1ccccc1F)Nc1cccc2ccc(O)cc12 | inconclusive: 17.7 µM [inhibitor, partial curve] |
| Cc1cccc(OCC(=O)O/N=C(\N)c2ccncc2)c1 | inactive |
| COC(=O)C1=C(C)N(CCc2ccc(OC)c(OC)c2)C(=O)/C1=C\c1ccc(O)cc1 | inconclusive: 15.8 µM [inhibitor, single point] |
| O=C(O)Cc1sc(Nc2ccc(Cl)cc2)nc1-c1cccs1 | active: 17.7 µM |
| CCCc1nc2c(C)ccc(C)c2c(N)c1CC | inconclusive: 15.8 µM [inhibitor, partial curve] |
| COc1ccc(-c2cc(-c3ccco3)[nH]c(=O)c2C#N)cc1OC | active: 15.8 µM |
| CCOc1ccc(CCNC(=O)c2cc3sc(Cl)cc3n2C)cc1OCC | inactive |
| O=C(Nn1cc(C(=O)Nc2ccc(F)cc2F)c2ccccc2c1=O)c1cnccn1 | active: 17.7 µM |
| Cc1ccc(-n2c(SCC(=O)NCC3CCCO3)nc3c(c2=O)SCC3)cc1 (stereo not given) | inconclusive: 25.1 µM [inhibitor, single point] |
| COc1cccc(-c2nc(N(C)C)c3ccccc3n2)c1 | inconclusive: 15.8 µM [inhibitor, single point] |
